These results are taken from publication PMC12820563.

This is one part of the list. The list includes weakly bound sequences.

The target of the assay is T1, MBP-FoxP3dN (UniProt Q99JB6).
T1 sequence: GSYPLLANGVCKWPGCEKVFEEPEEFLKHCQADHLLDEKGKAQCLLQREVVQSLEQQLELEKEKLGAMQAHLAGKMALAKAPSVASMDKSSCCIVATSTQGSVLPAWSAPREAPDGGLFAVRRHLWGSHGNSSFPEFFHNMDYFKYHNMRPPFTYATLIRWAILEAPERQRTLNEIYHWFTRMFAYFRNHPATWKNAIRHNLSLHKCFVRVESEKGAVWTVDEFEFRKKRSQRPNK
Briefly: PD-seq (MBP pull-down with sequencing). Particulars: 20 mM Tris-HCl pH 7.5, 100 mM NaCl, 1.5 mM MgCl2, 0.4 uM protein, 0.1 uM dsDNA library, 30 min, room temperature, amylose pull-down; high values mean tight binding; double strand, one strand shown.
With “GATGATTGTTCTCCCAGCTGATGAATTCTCCATTTCGAGTAAACAAATTTTCCTAATCTTTCTGTTCAAGCGCCATCTAC”, the binding signal (RPM ratio (pull-down/input)) was found to be 0.26.

With “GATGATTGTTCTCCCAGCTGATGAATTCAGCCGGTCGAGTAAACAAATTTTCCTAATCTTTCTGTTCAAGCGCCATCTAC”, the binding signal (RPM ratio (pull-down/input)) came to 0.407.

As to “GATGATTGTTCTCCCAGCTGATGAATTTTGATCCTCGAGTAAACAAATTTTCCTAATCTTTCTGTTCAAGCGCCATCTAC”, the binding signal (RPM ratio (pull-down/input)) was found to be 0.498.

As to “GATGATTGTTCTCCCAGCTGATGAATTCGTCATTTCGAGTAAACAAATTTTCCTAATCTTTCTGTTCAAGCGCCATCTAC”, the binding signal (RPM ratio (pull-down/input)) came to 1.89.

With “GATGATTGTTCTCCCAGCTGATGAATTTCTCGAGTCGAGTAAACAAATTTTCCTAATCTTTCTGTTCAAGCGCCATCTAC”, the binding signal (RPM ratio (pull-down/input)) was 0.191.

On to “GATGATTGTTCTCCCAGCTGATGAATTTCGCGCGTCGAGTAAACAAATTTTCCTAATCTTTCTGTTCAAGCGCCATCTAC”, for which the binding signal (RPM ratio (pull-down/input)) amounted to 1.92.

Turning to “GATGATTGTTCTCCCAGCTGATGAATTTTACTAGTCGAGTAAACAAATTTTCCTAATCTTTCTGTTCAAGCGCCATCTAC”, the binding signal (RPM ratio (pull-down/input)) is 0.31.

Take “GATGATTGTTCTCCCAGCTGATGAATTTCTCTGGTCGAGTAAACAAATTTTCCTAATCTTTCTGTTCAAGCGCCATCTAC”: the binding signal (RPM ratio (pull-down/input)) is 0.195.

Take “GATGATTGTTCTCCCAGCTGATGAATTTAGTCAGTCGAGTAAACAAATTTTCCTAATCTTTCTGTTCAAGCGCCATCTAC”: the binding signal (RPM ratio (pull-down/input)) came to 0.361.

As for “GATGATTGTTCTCCCAGCTGATGAATTTTCTCGATCGAGTAAACAAATTTTCCTAATCTTTCTGTTCAAGCGCCATCTAC”, the binding signal (RPM ratio (pull-down/input)) was 0.22.

Turning to “GATGATTGTTCTCCCAGCTGATGAATTGCCAGGGTCGAGTAAACAAATTTTCCTAATCTTTCTGTTCAAGCGCCATCTAC”, the binding signal (RPM ratio (pull-down/input)) is 0.649.

On to “GATGATTGTTCTCCCAGCTGATGAATTTAGGGGTTCGAGTAAACAAATTTTCCTAATCTTTCTGTTCAAGCGCCATCTAC”, for which the binding signal (RPM ratio (pull-down/input)) came to 0.677.

Take “GATGATTGTTCTCCCAGCTGATGAATTTTGAAGGTCGAGTAAACAAATTTTCCTAATCTTTCTGTTCAAGCGCCATCTAC”: the binding signal (RPM ratio (pull-down/input)) was 0.308.

On to “GATGATTGTTCTCCCAGCTGATGAATTCCGCATATCGAGTAAACAAATTTTCCTAATCTTTCTGTTCAAGCGCCATCTAC”, for which the binding signal (RPM ratio (pull-down/input)) came out at 3.11.

For “GATGATTGTTCTCCCAGCTGATGAATTCCCGACGTCGAGTAAACAAATTTTCCTAATCTTTCTGTTCAAGCGCCATCTAC”, the binding signal (RPM ratio (pull-down/input)) was determined as 0.241.

For “GATGATTGTTCTCCCAGCTGATGAATTATGGAGGTCGAGTAAACAAATTTTCCTAATCTTTCTGTTCAAGCGCCATCTAC”, the binding signal (RPM ratio (pull-down/input)) stood at 0.302.

Turning to “GATGATTGTTCTCCCAGCTGATGAATTGGTCGGTTCGAGTAAACAAATTTTCCTAATCTTTCTGTTCAAGCGCCATCTAC”, the binding signal (RPM ratio (pull-down/input)) came to 0.409.

Consider “GATGATTGTTCTCCCAGCTGATGAATTTGTGGACTCGAGTAAACAAATTTTCCTAATCTTTCTGTTCAAGCGCCATCTAC”, for which the binding signal (RPM ratio (pull-down/input)) was 4.04.

In the case of “GATGATTGTTCTCCCAGCTGATGAATTTAGAGATTCGAGTAAACAAATTTTCCTAATCTTTCTGTTCAAGCGCCATCTAC”, the binding signal (RPM ratio (pull-down/input)) came out at 0.458.

With “GATGATTGTTCTCCCAGCTGATGAATTGTACCTTTCGAGTAAACAAATTTTCCTAATCTTTCTGTTCAAGCGCCATCTAC”, the binding signal (RPM ratio (pull-down/input)) was determined as 0.527.

On to “GATGATTGTTCTCCCAGCTGATGAATTACTGAACTCGAGTAAACAAATTTTCCTAATCTTTCTGTTCAAGCGCCATCTAC”, for which the binding signal (RPM ratio (pull-down/input)) stood at 0.267.

Take “GATGATTGTTCTCCCAGCTGATGAATTGGATACGTCGAGTAAACAAATTTTCCTAATCTTTCTGTTCAAGCGCCATCTAC”: the binding signal (RPM ratio (pull-down/input)) came out at 0.562.

On to “GATGATTGTTCTCCCAGCTGATGAATTATGAGGCTCGAGTAAACAAATTTTCCTAATCTTTCTGTTCAAGCGCCATCTAC”, for which the binding signal (RPM ratio (pull-down/input)) was found to be 0.6.

As for “GATGATTGTTCTCCCAGCTGATGAATTGCGGTCATCGAGTAAACAAATTTTCCTAATCTTTCTGTTCAAGCGCCATCTAC”, the binding signal (RPM ratio (pull-down/input)) turned out to be 1.01.

For the sequence “GATGATTGTTCTCCCAGCTGATGAATTGAATATATCGAGTAAACAAATTTTCCTAATCTTTCTGTTCAAGCGCCATCTAC”, the binding signal (RPM ratio (pull-down/input)) was 0.6.

For “GATGATTGTTCTCCCAGCTGATGAATTTAGCTCCTCGAGTAAACAAATTTTCCTAATCTTTCTGTTCAAGCGCCATCTAC”, the binding signal (RPM ratio (pull-down/input)) is 0.927.

For the sequence “GATGATTGTTCTCCCAGCTGATGAATTAGTTCCCTCGAGTAAACAAATTTTCCTAATCTTTCTGTTCAAGCGCCATCTAC”, the binding signal (RPM ratio (pull-down/input)) stood at 0.617.

Turning to “GATGATTGTTCTCCCAGCTGATGAATTCAGCGAATCGAGTAAACAAATTTTCCTAATCTTTCTGTTCAAGCGCCATCTAC”, the binding signal (RPM ratio (pull-down/input)) is 0.239.

In the case of “GATGATTGTTCTCCCAGCTGATGAATTAGAGGAGTCGAGTAAACAAATTTTCCTAATCTTTCTGTTCAAGCGCCATCTAC”, the binding signal (RPM ratio (pull-down/input)) came to 0.236.

On to “GATGATTGTTCTCCCAGCTGATGAATTCGCGCTCTCGAGTAAACAAATTTTCCTAATCTTTCTGTTCAAGCGCCATCTAC”, for which the binding signal (RPM ratio (pull-down/input)) is 0.483.

For the sequence “GATGATTGTTCTCCCAGCTGATGAATTCCTCATCTCGAGTAAACAAATTTTCCTAATCTTTCTGTTCAAGCGCCATCTAC”, the binding signal (RPM ratio (pull-down/input)) is 0.247.

For “GATGATTGTTCTCCCAGCTGATGAATTTGGCTCGTCGAGTAAACAAATTTTCCTAATCTTTCTGTTCAAGCGCCATCTAC”, the binding signal (RPM ratio (pull-down/input)) amounted to 0.665.
